Source: PubChem BioAssay AID1240 (Sanford-Burnham Center for Chemical Genomics, 2008)
The whole screen tested about 50,000 compounds, of which about 800 (1.6%) showed an effect of 50% or more. This is one part of the list.

target: Bcl-2-like protein 10 (Homo sapiens) (UniProt Q9HD36); experiment: TR3 peptide-Bcl-B binding displacers, biochemical primary FP assay, phenotype converters (AID 1240); conditions: GST-Bcl-B / FITC-TR3 peptide fluorescence polarization; stronger effect = higher value; compound at 3.75 mg/L;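 note: 0% = Bcl-B with tracer peptide and DMSO and 100% = tracer peptide lacking Bcl-B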
Sequence of UniProt Q9HD36 (Q9HD36 whole entry, looked up): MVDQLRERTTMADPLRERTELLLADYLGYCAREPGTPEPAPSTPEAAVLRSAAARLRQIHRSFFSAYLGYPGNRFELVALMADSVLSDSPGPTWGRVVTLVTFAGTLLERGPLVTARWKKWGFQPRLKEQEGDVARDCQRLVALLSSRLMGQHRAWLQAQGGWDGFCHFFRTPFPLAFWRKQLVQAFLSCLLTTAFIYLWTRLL

Row | Compound | displacement [%]
1 | O=C1/C(=C/c2cccs2)SC(=S)N1c1cccc(O)c1 | -2.6
2 | CS(=O)(=O)N(Cc1ccc(C(=O)N[C@@H]2C[C@H]3CC[C@@H]2C3)cc1)c1ccccc1 | 12.9
3 | COc1ccccc1NC(=O)CSc1nc(C)cc(C)n1 | 9.8
4 | C=CCN1C(=O)/C(=C\c2ccc(-c3ccc([N+](=O)[O-])cc3C)o2)C(=O)NC1=S | 14.8
5 | CCOc1cc(/C=N/Nc2nc(N3CCOCC3)nc(N3CCOCC3)n2)ccc1OCc1ccccc1 | 2.1
6 | O=C(Nc1ccc2c(c1)OCO2)c1cccc(F)c1 | -3.5
7 | CN1CCN(c2ccc([N+](=O)[O-])c(NCCOc3ccc(C(C)(C)C)cc3)c2)CC1 | 7.3
8 | CC(C)(C)NC(=O)c1cc(-c2ccc(Cl)cc2)nc2ccccc12 | 15.9
9 | Cc1ccccc1NC(=O)CCCN1C(=O)/C(=C/c2cccc3c2OCO3)SC1=S | 94.9
10 | C=CC(=O)NC(NC(=O)C=C)c1ccc(Br)cc1 | -5.1
11 | O=c1oc2ccccc2c2c1nnn2CCN1CCCCC1 | -6
12 | COc1cc(NC(=O)Cn2nc(C(F)(F)F)c(Br)c2C)c(OC)cc1Cl | -7
13 | O=C1C2C(c3ccccc3)OC3(C(=O)c4ccccc4C3=O)C2C(=O)N1c1ccc(F)c([N+](=O)[O-])c1 (stereo unspecified) | -6.5
14 | CS(=O)(=O)N1CCN(C(=O)c2ccc([N+](=O)[O-])cc2)CC1 | -29.2
15 | CC(=O)Nc1ccc(S(=O)(=O)N/N=C(\C)c2cccs2)cc1 | 2.2
16 | CO/N=C(/c1nonc1N)N1CCN(c2ccc([N+](=O)[O-])cc2)CC1 | 14.1
17 | Cc1ccc(C(C)C)c(OCC(=O)Nc2ccc(NC(=O)c3ccco3)cc2)c1 | 33.9
18 | CCN1CCN(Cc2c(O)ccc3ccccc23)CC1 | 13.6
19 | CCN(CC)c1ccc(NC(=O)c2ccccc2)cc1 | 11.1
20 | c1ccc(C2CCC(N3CCN(Cc4ccncc4)CC3)CC2)cc1 (stereo unspecified) | -0.2
21 | CCCCOc1ccc(NCN2C(=O)c3ccccc3C2=O)cc1 | 14.6
22 | CCn1c(C)[n+](CC)c2ccc([N+](=O)[O-])cc21 | 11.4
23 | CCOC(=O)c1ccc(NC(=O)c2c(Cl)cccc2Cl)cc1 | 9.6
24 | Cc1cc(C=O)c(C)n1-c1ccc(Br)cc1 | -3.8

Row | Compound | displacement [%]
25 | COc1ccc2c(Cl)c(C(=O)N3CCN(c4ccccc4)CC3)sc2c1 | 10.2
26 | COc1cccc(CN2CCN(Cc3cccc(F)c3)CC2)c1OC | 3.2
27 | Cc1ccc(/C(N)=N/OC(=O)c2cccc(Br)c2)cc1 | 8.8
28 | COc1ccc(-c2ccc(CO)o2)cc1 | 12.6
29 | Cc1ccccc1C(=O)Nc1sc2c(c1C(=O)N1CCN(Cc3ccccc3)CC1)CCC(C)C2 (stereo unspecified) | -3.1
30 | CCOC(=O)c1ccc(-c2ccc(/C=C3/SC(=S)N(CC)C3=O)o2)cc1 | 31
31 | COc1cccc(N2C(=O)NC(=O)/C(=C/c3ccoc3)C2=O)c1 | -64.3
32 | Cc1ccc(N2CC(C(=O)Nc3nccs3)CC2=O)cc1 (stereo unspecified) | 7.1
33 | O=S(=O)(Nc1cc(Br)c(O)c2ccccc12)c1cc(Cl)ccc1Cl | 21
34 | COc1ccc(-c2cc(C(=O)Nc3nc(C)c(C)s3)c3ccccc3n2)cc1OC | 7.9
35 | CCC1=[N+](C)c2cccc3cccc(c23)N1C | 3.9
36 | COC(=O)C1(S(=O)(=O)c2ccc(Cl)cc2)CC1 | -2.6
37 | Cc1cccc(/C(N)=N/OC(=O)c2ccco2)c1 | -7.6
38 | NC(=O)c1ccc(NC(=O)c2ccc(I)cc2)cc1 | 10.8
39 | O=C(Nc1ccc(-c2nc3ccccc3c(=O)o2)cc1)c1cccs1 | -8.4
40 | O=C(Nc1nc2ccc([N+](=O)[O-])cc2s1)c1cc(Cl)cc(Cl)c1 | 11.9
41 | CCOc1ccc(NC(=O)c2c(NC(=O)C(C)(C)C)sc3c2CCCC3)cc1 | -3.2
42 | CSc1nc2c(c(=O)n(C)c(=O)n2C)n1C | 0.3
43 | O=C(O)c1nn2c(c1Cl)NC(c1cccs1)CC2C(F)(F)F (stereo unspecified) | 2.8
44 | CCc1nnc(NC(=O)CN2CCN(Cc3ccccc3)CC2)s1 | 3
45 | O=C(Oc1ccc(Cl)cc1Cl)c1c(F)cccc1F | 14.4
46 | O=C(Nc1ccc(Cl)cc1)/C(=C\c1cccc([N+](=O)[O-])c1)NC(=O)c1cccs1 | 2.4
47 | COCCN(CCOC)Cc1c(O)ccc2c3c(c(=O)oc12)CCC3 | 9.5
48 | Cc1ccccc1OCc1nc(-c2ccc(Cl)cc2)no1 | 10.3

Row | Compound | displacement [%]
49 | Cc1cc(C)nc(SCC(=O)Nc2ccc(F)cc2)n1 | -6.7
50 | Cc1cccc2sc(NC(=O)c3cccc([N+](=O)[O-])c3)nc12 | -11.3
51 | O=C(O)CC(Cc1ccc(Br)cc1)C(=O)NCc1ccccc1 (stereo unspecified) | 15.8
52 | CC(=O)c1cccc(NC(=O)c2ccccc2C)c1 | 14.7
53 | O=C1OC(c2ccc(F)cc2)=N/C1=C\c1ccccc1[N+](=O)[O-] | 4.1
54 | CCCC(=O)Nc1ccc(-c2nc3cc(C)c(C)cc3o2)c(O)c1 | 96.8
55 | CCOc1ccc(C(=O)Nc2cc(-c3nc4ccccc4s3)ccc2Cl)cc1Cl | 30.8
56 | COc1ccc(C(=O)N=Nc2c(O)[nH]c3c(C)cc([N+](=O)[O-])cc23)cc1 | 115
57 | CCN(CC)S(=O)(=O)c1ccc(NC(=O)c2ccc(F)cc2)cc1 | -6.9
58 | CCOC(=O)COc1ccccc1/C=N/NC(=O)COc1ccc(Br)cc1OC | -4.2
59 | COc1ccc(NC(=O)CCCN(C)S(=O)(=O)c2ccc(C)cc2)cc1 | 2.5
60 | CC(C)C(NC(=O)c1ccc(CN(c2ccccc2)S(C)(=O)=O)cc1)C(C)C | -4.1
61 | COc1ccc(C2Nc3ccccc3C(=O)N2c2ccccc2)cc1COc1ccc(NC(C)=O)cc1 (stereo unspecified) | -6.3
62 | O=C(Nc1cccc(F)c1)C1CC(=O)N(c2ccc(F)cc2)C1 (stereo unspecified) | 6.2
63 | COC(=O)CN(c1cc(Cl)cc(Cl)c1)S(C)(=O)=O | 0.9
64 | COc1cc(/C=C(/C#N)C(=O)Nc2cccc(Br)c2)cc(OC)c1O | -114
65 | COc1ccc(-n2c(-c3cc(OC)c(OC)c(OC)c3)n[nH]c2=S)cc1 | -13.9
66 | COc1ccccc1N1CCN(/N=C\c2cccc(O)c2)CC1 | -1
67 | O=S(=O)(Nc1ccc(F)c(Cl)c1)c1ccccc1Cl | 6.5
68 | N#Cc1c(N)[nH]c(=S)c(C#N)c1-c1cccc(O)c1 | 4.5
69 | COc1cccc(NC(=O)C(=O)NCc2ccccn2)c1 | -7.8
70 | CCOC(=O)c1sc(N/N=C/c2ccccc2)nc1C | -1.5
71 | O=C(COC(=O)c1cc2ccccc2s1)Nc1cccc2ccccc12 | 12.7
